Experimental data from paper PMC5605756.
No constants are given. Whether binding was seen depends on the method and setting. Binding seen in cells or lysates may run through a third protein. Some entries that bind do so weakly or less than the wild type. For some assays here: Sequences can lack the tags named with a protein.

Chains of the proteins cited; added tags and fusions are not shown. Lines headed by an entry give the natural chain unless they say otherwise; changes in a name come on top. A line that says so, or that is headed by a name, gives the form on record, which may keep a tag or linker. Residues count along the entry.
UniProt Q00175: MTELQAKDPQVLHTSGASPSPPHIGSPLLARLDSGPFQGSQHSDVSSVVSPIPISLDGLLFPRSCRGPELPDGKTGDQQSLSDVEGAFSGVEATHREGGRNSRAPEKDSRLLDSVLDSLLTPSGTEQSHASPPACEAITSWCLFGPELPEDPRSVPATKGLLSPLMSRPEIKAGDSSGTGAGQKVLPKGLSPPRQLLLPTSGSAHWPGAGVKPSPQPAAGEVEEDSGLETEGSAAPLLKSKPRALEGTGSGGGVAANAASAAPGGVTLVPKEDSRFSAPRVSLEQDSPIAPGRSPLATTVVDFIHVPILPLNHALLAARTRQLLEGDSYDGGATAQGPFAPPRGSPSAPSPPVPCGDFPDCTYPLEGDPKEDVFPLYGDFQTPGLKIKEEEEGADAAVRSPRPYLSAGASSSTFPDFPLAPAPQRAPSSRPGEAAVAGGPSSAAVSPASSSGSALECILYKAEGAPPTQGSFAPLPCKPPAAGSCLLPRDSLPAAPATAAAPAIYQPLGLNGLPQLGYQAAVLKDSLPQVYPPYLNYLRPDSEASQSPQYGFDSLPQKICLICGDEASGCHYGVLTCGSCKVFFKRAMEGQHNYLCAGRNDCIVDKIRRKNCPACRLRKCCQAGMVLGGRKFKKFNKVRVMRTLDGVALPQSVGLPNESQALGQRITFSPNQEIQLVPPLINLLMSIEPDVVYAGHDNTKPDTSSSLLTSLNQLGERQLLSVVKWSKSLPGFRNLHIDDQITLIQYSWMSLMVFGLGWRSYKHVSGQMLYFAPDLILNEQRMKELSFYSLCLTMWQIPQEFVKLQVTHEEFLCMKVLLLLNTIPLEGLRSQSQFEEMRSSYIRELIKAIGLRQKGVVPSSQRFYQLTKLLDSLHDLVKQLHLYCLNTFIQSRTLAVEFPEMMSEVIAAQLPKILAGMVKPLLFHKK
UniProt Q9CQY1: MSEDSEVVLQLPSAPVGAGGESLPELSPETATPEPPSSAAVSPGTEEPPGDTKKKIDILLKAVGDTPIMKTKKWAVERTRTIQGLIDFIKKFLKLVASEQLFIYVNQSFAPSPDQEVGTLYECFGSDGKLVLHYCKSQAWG
UniProt Q9CPX6: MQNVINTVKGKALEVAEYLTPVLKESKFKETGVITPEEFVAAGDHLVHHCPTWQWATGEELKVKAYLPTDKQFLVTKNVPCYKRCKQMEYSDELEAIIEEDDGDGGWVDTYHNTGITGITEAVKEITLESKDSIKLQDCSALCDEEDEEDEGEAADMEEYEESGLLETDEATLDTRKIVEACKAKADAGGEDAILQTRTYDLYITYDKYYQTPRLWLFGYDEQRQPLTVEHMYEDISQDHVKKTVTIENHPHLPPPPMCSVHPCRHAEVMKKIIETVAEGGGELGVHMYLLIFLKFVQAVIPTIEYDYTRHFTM
UniProt Q9R1E0: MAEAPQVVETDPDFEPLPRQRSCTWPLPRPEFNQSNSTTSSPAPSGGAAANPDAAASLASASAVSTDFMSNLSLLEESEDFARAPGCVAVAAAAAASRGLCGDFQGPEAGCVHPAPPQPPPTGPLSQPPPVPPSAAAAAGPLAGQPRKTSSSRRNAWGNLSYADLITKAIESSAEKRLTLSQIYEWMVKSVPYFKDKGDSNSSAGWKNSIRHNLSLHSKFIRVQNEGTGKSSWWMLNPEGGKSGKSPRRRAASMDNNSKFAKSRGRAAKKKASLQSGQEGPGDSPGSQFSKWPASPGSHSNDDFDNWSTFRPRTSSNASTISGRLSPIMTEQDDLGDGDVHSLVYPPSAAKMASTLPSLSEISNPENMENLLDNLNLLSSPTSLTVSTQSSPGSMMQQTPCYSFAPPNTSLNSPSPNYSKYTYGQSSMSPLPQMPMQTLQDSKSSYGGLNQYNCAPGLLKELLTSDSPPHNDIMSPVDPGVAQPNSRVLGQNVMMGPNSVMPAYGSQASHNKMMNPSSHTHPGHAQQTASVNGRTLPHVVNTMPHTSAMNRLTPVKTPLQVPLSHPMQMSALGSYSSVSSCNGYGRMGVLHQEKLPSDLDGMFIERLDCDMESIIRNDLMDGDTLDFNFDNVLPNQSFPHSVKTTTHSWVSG
UniProt P11688, residues 45-1053: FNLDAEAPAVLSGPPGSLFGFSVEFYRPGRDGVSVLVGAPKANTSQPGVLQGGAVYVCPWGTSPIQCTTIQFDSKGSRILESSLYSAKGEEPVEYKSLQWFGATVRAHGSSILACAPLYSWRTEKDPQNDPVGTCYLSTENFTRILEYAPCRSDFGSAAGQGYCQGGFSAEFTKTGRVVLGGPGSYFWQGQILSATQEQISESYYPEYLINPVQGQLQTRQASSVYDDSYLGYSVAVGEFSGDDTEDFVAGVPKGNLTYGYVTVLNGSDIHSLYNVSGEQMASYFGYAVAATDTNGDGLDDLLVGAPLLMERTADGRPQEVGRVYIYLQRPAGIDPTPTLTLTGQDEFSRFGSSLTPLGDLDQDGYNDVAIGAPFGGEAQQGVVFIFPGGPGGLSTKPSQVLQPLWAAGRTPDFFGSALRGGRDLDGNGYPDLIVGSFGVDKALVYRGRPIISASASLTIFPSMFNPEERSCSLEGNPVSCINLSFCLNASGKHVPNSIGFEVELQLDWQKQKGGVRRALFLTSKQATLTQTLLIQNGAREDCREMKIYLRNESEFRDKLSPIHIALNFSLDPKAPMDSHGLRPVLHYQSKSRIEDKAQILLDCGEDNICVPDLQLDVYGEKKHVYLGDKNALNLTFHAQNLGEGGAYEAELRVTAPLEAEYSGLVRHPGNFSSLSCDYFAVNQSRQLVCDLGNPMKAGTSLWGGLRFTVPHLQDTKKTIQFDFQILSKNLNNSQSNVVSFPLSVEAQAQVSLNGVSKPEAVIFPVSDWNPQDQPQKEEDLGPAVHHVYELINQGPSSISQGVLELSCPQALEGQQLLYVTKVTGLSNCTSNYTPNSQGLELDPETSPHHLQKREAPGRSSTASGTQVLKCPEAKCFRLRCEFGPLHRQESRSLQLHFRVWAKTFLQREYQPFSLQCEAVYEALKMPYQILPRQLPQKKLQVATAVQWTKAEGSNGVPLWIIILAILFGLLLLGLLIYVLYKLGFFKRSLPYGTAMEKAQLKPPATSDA
UniProt P70365: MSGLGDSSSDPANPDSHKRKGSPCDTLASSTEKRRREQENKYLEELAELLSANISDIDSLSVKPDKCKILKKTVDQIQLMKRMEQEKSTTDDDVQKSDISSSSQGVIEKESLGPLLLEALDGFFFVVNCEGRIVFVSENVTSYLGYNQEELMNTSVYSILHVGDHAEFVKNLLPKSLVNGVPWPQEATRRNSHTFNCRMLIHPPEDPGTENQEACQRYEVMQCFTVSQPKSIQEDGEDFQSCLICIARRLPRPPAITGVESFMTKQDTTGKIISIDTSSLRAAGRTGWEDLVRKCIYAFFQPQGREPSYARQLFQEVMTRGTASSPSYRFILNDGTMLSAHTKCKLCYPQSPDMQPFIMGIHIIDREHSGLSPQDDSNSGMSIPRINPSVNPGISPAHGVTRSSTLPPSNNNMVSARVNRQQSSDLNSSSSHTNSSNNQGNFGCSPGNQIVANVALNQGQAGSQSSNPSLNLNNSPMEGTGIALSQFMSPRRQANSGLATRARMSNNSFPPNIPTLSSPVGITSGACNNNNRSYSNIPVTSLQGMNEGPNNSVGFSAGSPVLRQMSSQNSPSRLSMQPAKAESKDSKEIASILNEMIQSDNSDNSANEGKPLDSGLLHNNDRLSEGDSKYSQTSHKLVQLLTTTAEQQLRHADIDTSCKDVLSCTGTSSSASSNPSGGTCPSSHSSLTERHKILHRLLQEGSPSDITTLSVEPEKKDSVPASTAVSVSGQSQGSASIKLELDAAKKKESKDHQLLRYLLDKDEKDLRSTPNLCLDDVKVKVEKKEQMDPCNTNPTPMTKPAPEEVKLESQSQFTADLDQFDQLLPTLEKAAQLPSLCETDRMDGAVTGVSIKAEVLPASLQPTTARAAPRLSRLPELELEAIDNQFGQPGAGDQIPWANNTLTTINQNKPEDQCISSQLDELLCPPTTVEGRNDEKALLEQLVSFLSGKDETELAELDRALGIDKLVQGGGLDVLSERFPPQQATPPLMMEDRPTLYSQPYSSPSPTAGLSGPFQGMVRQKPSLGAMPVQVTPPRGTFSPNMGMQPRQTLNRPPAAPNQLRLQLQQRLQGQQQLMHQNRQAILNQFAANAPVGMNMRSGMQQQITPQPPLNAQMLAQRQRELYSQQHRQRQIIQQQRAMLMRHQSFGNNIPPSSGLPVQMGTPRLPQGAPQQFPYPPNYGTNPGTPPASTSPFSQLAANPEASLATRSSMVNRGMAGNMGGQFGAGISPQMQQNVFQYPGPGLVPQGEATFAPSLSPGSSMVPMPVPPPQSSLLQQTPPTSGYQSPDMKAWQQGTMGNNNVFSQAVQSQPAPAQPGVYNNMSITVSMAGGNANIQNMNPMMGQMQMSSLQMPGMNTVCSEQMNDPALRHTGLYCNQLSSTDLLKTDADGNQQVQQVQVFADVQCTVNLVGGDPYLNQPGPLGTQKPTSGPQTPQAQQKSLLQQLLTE
synapsin-IIb (Q64332-2, form named): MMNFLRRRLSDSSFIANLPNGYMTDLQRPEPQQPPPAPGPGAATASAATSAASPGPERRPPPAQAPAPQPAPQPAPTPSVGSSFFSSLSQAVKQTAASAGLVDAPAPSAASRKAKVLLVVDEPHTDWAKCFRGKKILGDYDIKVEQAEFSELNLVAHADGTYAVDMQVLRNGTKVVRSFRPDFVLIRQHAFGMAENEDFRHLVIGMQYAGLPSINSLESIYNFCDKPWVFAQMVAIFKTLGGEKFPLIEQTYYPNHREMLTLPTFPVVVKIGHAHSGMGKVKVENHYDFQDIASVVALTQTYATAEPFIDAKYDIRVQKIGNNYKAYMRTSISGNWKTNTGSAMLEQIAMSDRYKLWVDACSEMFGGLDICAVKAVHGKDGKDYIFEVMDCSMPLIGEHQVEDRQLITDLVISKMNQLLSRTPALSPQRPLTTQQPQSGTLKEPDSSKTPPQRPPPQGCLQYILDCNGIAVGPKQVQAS

Key:
[1] = target: glutathione S-transferase-tagged mouse progestin receptor PR-B (mouse) (UniProt Q00175); assay: pull-down; GST-PRA or GST-PRB bound to R5020, immobilised on glutathione Sepharose 4B, incubated 1 h at 4°C with pooled female mouse hypothalamic homogenate; eluates spotted and read by reverse phase protein array (RPPA) with 212 antibodies, normalised to PR signal; a hit has a ratio R5020/no ligand ≥2 and p < 0.05; only the target purified
[2] = target: glutathione S-transferase-tagged mouse progestin receptor PR-B (mouse) (UniProt Q00175); assay: pull-down; GST-PRA or GST-PRB bound to R5020, immobilised on glutathione Sepharose 4B, incubated 1 h at 4°C with pooled female mouse hypothalamic homogenate; eluted by boiling in Laemmli buffer; Western blot; only the target purified
[3] = target: glutathione S-transferase-tagged mouse progestin receptor PR-B (mouse) (UniProt Q00175); assay: condition: only in the absence of ligand (unliganded GST-PR); pull-down; unliganded GST-PRA or GST-PRB, immobilised on glutathione Sepharose 4B, incubated 1 h at 4°C with pooled female mouse hypothalamic homogenate; eluted by boiling in Laemmli buffer; Western blot; only the target purified

binding [1] | binding [2] | binding [3] | Molecule
no binding |  |  | Autophagy related protein 12 (from UniProt Q9CQY1 1-141)
no binding |  |  | Autophagy-related protein 3 (from UniProt Q9CPX6 1-314)
no binding |  |  | Epidermal growth factor receptor (from UniProt Q01279 25-1210)
binds | binds | no binding | Forkhead box O1 (from UniProt Q9R1E0 1-652)
no binding |  |  | Integrin-α5 (from UniProt P11688 45-1053)
binds | binds | no binding | Steroid-receptor coactivator-1 (from UniProt P70365 1-1447)
 | binds |  | synapsin-IIa (from UniProt Q64332-1 1-586)
 | binds |  | synapsin-IIb (from UniProt Q64332-2 1-479)
no binding |  |  | Cyclin C (protein, UniProt Q62447 1-283) MAGNFWQSSHYLQWILDKQDLLKERQKDLKFLSEEEYWKLQIFFTNVIQALGEHLKLRQQVIATATVYFKRFYARYSLKSIDPVLMAPTCVFLASKVEEFGVVSNTRLIAATTSVLKTRFSYAFPKEFPYRMNHILECEFYLLELMDCCLIVYHPYRPLLQYVQDMGQEDVLLPLAWRIVNDTYRTDLCLLYPPFMIALACLHVACVVQQKDARQWFAELSVDMEKILEIIRVILKLYEQWKNFDERKEMATILSKMPKPKPPPNSEGEQGPNGSQNSSYSQS
binds |  |  | BCL2 antagonist/killer 1 (protein, UniProt O08734 1-209) MASGQGPGPPKVGCDESPSPSEQQVAQDTEEVFRSYVFYLHQQEQETQGAAAPANPEMDNLPLEPNSILGQVGRQLALIGDDINRRYDTEFQNLLEQLQPTAGNAYELFTKIASSLFKSGISWGRVVALLGFGYRLALYVYQRGLTGFLGQVTCFLADIILHHYIARWIAQRGGWVAALNFRRDPILTVMVIFGVVLLGQFVVHRFFRS
